The supplement of paper PMC6089552
Screen size: about 3,200 compounds; about 300 (9.4%) showed activity. Only a part is listed here, and it is no random draw.

System: A673/TR/shEF
Test: cell viability (LOESS-normalised, relative to median of negative controls) (log2 ratio); higher = more viable cells (less compound effect), active = hit call of the paper (over 3 MAD below the median)
Details: treatment time: 72 h
Outline: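 A673/TR/shEF Ewing sarcoma cells were plated at 1,500 per well in 384-well plates and cultured with or without doxycycline, added 24 h before compounds, to induce EWS-FLI1 shRNA knockdown. Library compounds at two or more concentrations, alongside DMSO controls, were applied for three days. Cell viability was measured by CellTiter-Glo luminescence on an Envision reader. Readings were LOESS-corrected per plate, divided by the median of negative controls and log2-transformed, and hits were wells lying at least three median absolute deviations from the median of all screened wells.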

[1] = 0.25 µM, library screen: screen1, EWS-FLI1 expression: high (no doxycycline)
[2] = 0.25 µM, library screen: screen1, EWS-FLI1 expression: low (doxycycline-induced shRNA knockdown)
[3] = 2.5 µM, library screen: screen1, EWS-FLI1 expression: high (no doxycycline)
[4] = 2.5 µM, library screen: screen1, EWS-FLI1 expression: low (doxycycline-induced shRNA knockdown)
[5] = 0.25 µM, library screen: screen2, EWS-FLI1 expression: high (no doxycycline)
[6] = 0.25 µM, library screen: screen2, EWS-FLI1 expression: low (doxycycline-induced shRNA knockdown)
[7] = 2.5 µM, library screen: screen2, EWS-FLI1 expression: high (no doxycycline)
[8] = 2.5 µM, library screen: screen2, EWS-FLI1 expression: low (doxycycline-induced shRNA knockdown)
[9] = 0.103 µM, library screen: screen3, EWS-FLI1 expression: high (no doxycycline)
[10] = 0.103 µM, library screen: screen3, EWS-FLI1 expression: low (doxycycline-induced shRNA knockdown)
[11] = 0.308 µM, library screen: screen3, EWS-FLI1 expression: high (no doxycycline)
[12] = 0.308 µM, library screen: screen3, EWS-FLI1 expression: low (doxycycline-induced shRNA knockdown)
[13] = 0.926 µM, library screen: screen3, EWS-FLI1 expression: high (no doxycycline)
[14] = 0.926 µM, library screen: screen3, EWS-FLI1 expression: low (doxycycline-induced shRNA knockdown)
[15] = 2.8 µM, library screen: screen3, EWS-FLI1 expression: high (no doxycycline)
[16] = 2.8 µM, library screen: screen3, EWS-FLI1 expression: low (doxycycline-induced shRNA knockdown)
[17] = 8.3 µM, library screen: screen3, EWS-FLI1 expression: high (no doxycycline)
[18] = 8.3 µM, library screen: screen3, EWS-FLI1 expression: low (doxycycline-induced shRNA knockdown)
[19] = 25 µM, library screen: screen3, EWS-FLI1 expression: high (no doxycycline)
[20] = 25 µM, library screen: screen3, EWS-FLI1 expression: low (doxycycline-induced shRNA knockdown)

Measured: cell viability (log2)

O=c1cc(-c2ccccc2)oc2c(O)c(O)ccc12
inactive: [1] 0.189 | [2] -0.0108 | [3] 0.128 | [4] 0.0489

O=C1c2c(O)cccc2Cc2cccc(O)c21
inactive: [1] 0.0647 | [2] 0.0789 | [3] 0.0847 | [4] 0.13

C#CC(N)CCC(=O)O (stereo not drawn)
inactive: [5] -0.0331 | [6] -0.00776 | [7] 0.146 | [8] 0.0747

O=C1C[C@@H](c2ccccc2)Oc2cc(O)cc(O)c21
inactive: [1] 0.1 | [2] -0.031 | [3] 0.0675 | [4] -0.0933

COC(=O)C1=C(C)NC(C)=C([N+](=O)[O-])C1c1ccccc1C(F)(F)F (stereo not drawn)
inactive: [5] 0.112 | [6] 0.125 | [7] 0.175 | [8] 0.0692

COc1cc(C(=O)OCCCN2CCCN(CCCOC(=O)c3cc(OC)c(OC)c(OC)c3)CC2)cc(OC)c1OC
inactive: [5] 0.105 | [6] 0.0948 | [7] 0.199 | [8] 0.123

COc1ccc(-c2ccc3c(N4CCOC[C@@H]4C)nc(N4CCOC[C@@H]4C)nc3n2)cc1CO
active: [9] -0.268 | [10] -0.292 | [11] -0.621 | [12] -0.525 | [13] -1.05 | [14] -0.821 | [15] -1.66 | [16] -1.37 | [17] -1.89 | [18] -1.59 | [19] -1.94 | [20] -1.78

O=C(NC[C@H]1CN(c2ccc(N3CCOCC3=O)cc2)C(=O)O1)c1ccc(Cl)s1
inactive: [9] 0.0602 | [10] 0.0472 | [11] 0.05 | [12] -0.0342 | [13] 0.0339 | [14] 0.0765 | [15] -0.0103 | [16] -0.0135 | [17] 0.04 | [18] 0.0525 | [19] 0.00981 | [20] 0.0595

CC(C)c1c(O)c(-c2cc3c(c(C(C)C)c2O)CCC2C(C)(C)CCCC32C)cc2c1CCC1C(C)(C)CCCC21C (stereo not drawn)
inactive: [1] 0.108 | [2] 0.109 | [3] 0.0993 | [4] 0.112

C[C@@H]1C[C@H]2[C@@H]3C[C@H](F)C4=CC(=O)C=C[C@]4(C)[C@@]3(F)[C@@H](O)C[C@]2(C)[C@@]1(O)C(=O)CO
inactive: [1] 0.125 | [2] -0.264 | [3] 0.116 | [4] -0.238

CCCCCCCCCCCCCCCCOC[C@H](COCC(F)(F)F)OP(=O)(O)OC
inactive: [5] 0.136 | [6] 0.0651 | [7] 0.156 | [8] 0.0669

CCCCCCCCCCCCCCC[C@@H](O)[C@H](CO)NC(C)=O
inactive: [5] 0.176 | [6] 0.139 | [7] 0.0603 | [8] 0.124

CC[C@H](/C=C/[C@@H](C)[C@H]1CC[C@H]2[C@@H]3CC=C4C[C@@H](O)CC[C@]4(C)[C@H]3CC[C@]12C)C(C)C
inactive: [1] 0.0801 | [2] -0.0327 | [3] 0.107 | [4] 0.0318

CC1(C)CC2C1CCC1(CBr)CCC3C(CC(=O)O)C(=O)OC32C1 (stereo not drawn)
inactive: [1] 0.146 | [2] 0.038 | [3] 0.195 | [4] 0.152

CN1C2CCC1CC(OC(=O)c1c[nH]c3ccccc13)C2 (stereo not drawn)
inactive: [9] 0.0845 | [10] -0.0434 | [5] 0.133 | [6] 0.121 | [11] 0.0437 | [12] 0.102 | [13] 0.134 | [14] 0.0719 | [7] 0.136 | [8] 0.0412 | [15] 0.0507 | [16] 0.00358 | [17] -0.033 | [18] 0.0845 | [19] 0.0754 | [20] 0.0209

Cc1nnc(C(=O)NC(C)(C)c2nc(C(=O)NCc3ccc(F)cc3)c(O)c(=O)n2C)o1
inactive: [9] 0.13 | [10] 0.0901 | [11] 0.0867 | [12] 0.123 | [13] 0.2 | [14] 0.162 | [15] 0.101 | [16] 0.0695 | [17] 0.101 | [18] 0.124 | [19] 0.163 | [20] 0.12

CCC(C)CCCCC(=O)NC(CCNCS(=O)(=O)O)C(=O)NC(C(=O)NC(CCNCS(=O)(=O)O)C(=O)NC1CCNC(=O)C(C(C)O)NC(=O)C(CCNCS(=O)(=O)O)NC(=O)C(CCNCS(=O)(=O)O)NC(=O)C(CC(C)C)NC(=O)C(CC(C)C)NC(=O)C(CCNCS(=O)(=O)O)NC1=O)C(C)O (stereo not drawn)
inactive: [1] 0.117 | [2] 0.0486 | [3] 0.103 | [4] -0.0146

CCc1ccccc1OC[C@@H](O)CN[C@H]1CCCc2ccccc21
inactive: [5] 0.139 | [6] 0.00795 | [7] 0.162 | [8] 0.0146

COc1c2occc2cc2ccc(=O)oc12
inactive: 0.025 µM, library screen: screen2, EWS-FLI1 expression: high (no doxycycline) 0.0816 | 0.025 µM, library screen: screen2, EWS-FLI1 expression: low (doxycycline-induced shRNA knockdown) 0.0291 | [9] 0.114 | [10] -0.0228 | [1] 0.106 | [2] 0.087 | [5] 0.116 | [6] 0.0265 | [11] 0.108 | [12] 0.0766 | [13] 0.107 | [14] 0.0808 | [3] 0.267 | [4] 0.0328 | [7] 0.00648 | [8] 0.101 | [15] 0.114 | [16] 0.0915 | [17] 0.0523 | [18] 0.0351 | 25 µM, library screen: screen2, EWS-FLI1 expression: high (no doxycycline) 0.0896 | 25 µM, library screen: screen2, EWS-FLI1 expression: low (doxycycline-induced shRNA knockdown) 0.0776 | [19] 0.143 | [20] 0.0713

CC1(C)COC(CC(=O)O)CN1 (stereo not drawn)
inactive: [1] 0.11 | [2] 0.00312 | [3] 0.108 | [4] 0.0408

CN1CCN(C2=Nc3ccccc3Oc3ccc(Cl)cc32)CC1
inactive: [1] 0.0457 | [2] -0.0249 | [5] 0.2 | [6] 0.118 | [3] 0.0433 | [4] -0.00943 | [7] 0.165 | [8] 0.0787

Cc1onc(-c2c(Cl)cccc2Cl)c1C(=O)Nc1ccc(Br)cc1F
inactive: [1] 0.112 | [2] 0.103 | [3] 0.116 | [4] 0.0234

CN(Cc1cnc2nc(N)nc(N)c2n1)c1ccc(C(=O)N[C@H](CCC(=O)O)C(=O)O)cc1
inactive: [5] 0.209 | [6] 0.115 | [7] 0.0762 | [8] 0.165

CCCCCCCCCCCCCCCCCCOCC(O)CO (stereo not drawn)
inactive: [1] 0.0496 | [2] 0.117 | [3] 0.142 | [4] 0.0249

COc1ccccc1C1NC(=S)NC(C)=C1C(=O)Nc1cccc(Cl)c1 (stereo not drawn)
inactive: [1] 0.0961 | [2] 0.101 | [3] 0.0795 | [4] 0.0861

CCCCCc1c2c(cc(O)c1C(=O)O)OC(=O)c1c(cc(OC)cc1C(=O)CCCC)O2
inactive: [1] 0.114 | [2] 0.07 | [3] 0.16 | [4] 0.131

COC1=C[C@@H](C)[C@@H]2C[C@H]3OC(=O)C[C@H]4C(C)=C(OC)C(=O)[C@H]([C@@]2(C)C1=O)[C@@]34C
inactive: [1] 0.0742 | [2] 0.006 | [3] 0.146 | [4] 0.0264

N#Cc1ccc(C(c2ccc(C#N)cc2)n2cncn2)cc1
inactive: [9] 0.064 | [10] 0.0892 | [11] 0.0484 | [12] 0.0499 | [13] 0.01 | [14] 0.0721 | [15] 0.093 | [16] 0.0571 | [17] 0.064 | [18] 0.0674 | [20] 0.101
0.31: [19]

COc1ccc(-c2ccc(N)[n+](CCCC(=O)O)n2)cc1
inactive: [5] 0.167 | [6] 0.0773 | [7] 0.144 | [8] 0.0536

C=C1CC[C@H](O)C/C1=C/C=C1\CCC[C@]2(C)[C@@H]([C@H](C)CCCC(C)C)CC[C@@H]12
inactive: [1] 0.151 | [2] 0.125 | [3] 0.113 | [4] 0.0465

NC1(C(=O)O)CCCCC1
inactive: [5] 0.0492 | [6] 0.114 | [7] -0.0212 | [8] 0.0608

NNCCc1ccccc1
active: [7] -0.435 | [8] -0.392
inactive: [1] 0.0542 | [2] 0.11 | [5] 0.136 | [6] -0.0727 | [3] 0.2 | [4] 0.188

CC(=O)S[C@@H]1CC2=CC(=O)CC[C@]2(C)[C@H]2CC[C@@]3(C)[C@@H](CC[C@@]34CCC(=O)O4)[C@H]12
inactive: [1] 0.154 | [2] 0.0813 | [5] 0.207 | [6] 0.0952 | [3] 0.236 | [4] 0.233 | [7] 0.157 | [8] 0.0341

C#Cc1cccc(Nc2ncnc3cc(OC)c(OCCCCCCC(=O)NO)cc23)c1
inactive: [9] -0.0787 | [10] -0.0134 | [11] -0.0791 | [12] -0.0194
active: [13] -0.53 | [14] -0.197 | [15] -1.73 | [16] -0.607 | [17] -2.92 | [18] -0.618 | [19] -3.65 | [20] -1.64

CC(Cc1cccc(C(F)(F)F)c1)NCCOC(=O)c1ccccc1 (stereo not drawn)
inactive: [1] 0.109 | [2] 0.0265 | [3] 0.176 | [4] -0.0188

COc1ccc2c(=O)c(OC)c(-c3ccccc3)oc2c1
inactive: [1] 0.146 | [2] -0.0135 | [3] 0.142 | [4] -0.0254
